Reference: patent publication US5763404A, “Methods for using LHRH antagonists with low histamine release” (priority 1995, dated 1998)
Where “and” joins values, the source holds several entries; their conditions need not be identical. Equal entries are not always repeated. Not every detail of the peptide structures is certain; ends, links or a residue may be inferred. Starred links: 1 amine or outer side, 2 acyl side, 3 side chain; linkers in the order of their positions; H or OH if unused. Non-standard residues stand in square brackets, D forms with d. Residues, ends and D or L forms follow the SMILES beside them. *: point of attachment. X3 = O=C(N[C@H]1CC[C@H](C[C@@H](N[*:1])C(=O)[*:2])CC1)c1cnccn1; X6 = O=C(N[C@H]1CC[C@H](C[C@@H](N[*:1])C(=O)[*:2])CC1)c1ccccn1; dPhe(3,4-Cl2) = N[C@H](Cc1ccc(Cl)c(Cl)c1)C(=O)O; dPhe(4-Cl) = N[C@H](Cc1ccc(Cl)cc1)C(=O)O; d2Nal = N[C@H](Cc1ccc2ccccc2c1)C(=O)O; Nicotinoyl(6-Me) = Cc1ccc(C(=O)*)cn1; Lys(iPr) = CC(C)NCCCC[C@H](N)C(=O)O; Lys(Me2) = CN(C)CCCC[C@H](N)C(=O)O; Orn(iPr) = CC(C)NCCC[C@H](N)C(=O)O; d3Pal = N[C@H](Cc1cccnc1)C(=O)O; Nicotinoyl = O=C(c1cccnc1)*; Picolinoyl = O=C(c1ccccn1)*; Abu = CC[C@H](N)C(=O)O

Assays:
rat mast cells = assay: in vitro histamine release test; assay type: cell-based; details: rat mast cells, ± SEM
Method: The antiovulatory activity, AOA, in rats was determined as described by Humphries et al. (12). Antiovulation assays were performed by counting, on estrus, the number of ova shed by 4-day cycling rats after a single sc injection of the LH-RH analogue in corn oil was administered between 12 and 12:30 p.m. on […]. The control rats received 0.3 mL of the vehicle. The wheal test was performed by intradermally injecting 10 ug of peptide in 100 ul of saline into anaesthesized rats, measuring the ideally circular wheal response and calculating the area. The in vitro histamine release test was done as described by Karten et al. (4). A suspension of rat mast cells was added to increasing concentrations of peptide and the mixture was incubated for a few minutes followed by centrifugation to collect the histamine in the supernatant. A PIPES (piperazine-N,N'-bis[2-ethanesulfonic acid]) medium buffered at pH 7.4 containing NaCl 119 mM, KCl 5 mM, PIPES 25 mM, NaOH 40 mM, glucose 5.6 mM, CaCl2 1 mM, and 0.1% bovine serum albumin was used. This was designated as PIPES AC. Peptides were dissolved in double distilled H2 O at a concentration of 2 mg/ml and stored at -20° C. They were thawed just prior to testing, diluted in PIPES AC and prewarmed for five minutes at 37° C. Peptides studied were stable to heating at 56° C. for two hours, and to freezing and thawing.
Peritoneal cells were collected from male Sprague-Dawley rats weighing 200 to 250 gm and purchased from Harlan (Madison, Wis.). After euthanasia by CO2, the peritoneal cavity was washed with 50 ml PIPES AC medium containing 20 units of heparin. Following centrifugation at 200×g for eight minutes at 4° C., cells were washed again and finally resuspended to a concentration of 8 to 24×10^5 total leukocytes/ml in PIPES AC. This suspension contained approximately 5-10% mast cells. Washed cells were used immediately after collection and were prewarmed for five minutes at 37° C. prior to pipetting 0.25 ml aliquots into 12×75 mm polystyrene tubes containing 0.25 ml of diluted peptide. Mixtures were incubated for 15 minutes at 37° C. and the reaction stopped by centrifugation at 400×g for 15 minutes at 4° C. The cell supernatants were assayed for histamine content by the automated fluorometric assay procedure. See, Siraganian, R. P., "An automated continuous flow system for the extraction and fluorometric analysis of histamine." Anal. Biochem. 57:383 (1974); and Siraganian, R. P. and Hook, W. A., "Histamine release and assay methods for the study of human allergy," In Manual of Clinical Immunology, 3rd ed., N. R. Rose, H. Friedman, and J. L. Fahey (Eds.), Amer. Soc. for Microbiology, Washington (1986) p. 808.

4-day cycling rats = assay: antiovulatory activity (AOA) in rats, single sc injection; assay type: in vivo, rat; details: for AOA %/μg 1.0: 1.0 μg sc in corn oil; for AOA %/μg 0.5: 0.5 μg sc in corn oil; for AOA %/μg 0.25: 0.25 μg sc in corn oil; for AOA %/μg 2.0: 2.0 μg sc in corn oil

Structure (SMILES)	In Vitro Histamine Release ED50 (rat mast cells)	AOA %/μg 0.5 (4-day cycling rats)	AOA %/μg 1.0 (4-day cycling rats)	further results
CC(=O)N[C@H](Cc1ccc2ccccc2c1)C(=O)N[C@H](Cc1ccc(Cl)cc1)C(=O)N[C@H](Cc1cccnc1)C(=O)N[C@@H](CO)C(=O)N[C@@H](CCCCNC(=O)c1cccnc1)C(=O)N[C@H](CCCCNC(=O)c1cccnc1)C(=O)N[C@@H](CC(C)C)C(=O)N[C@@H](CCCNC(C)C)C(=O)N1CCC[C@H]1C(=O)N[C@H](C)C(N)=O [IBR 24933] (Ac-[d2Nal][dPhe(4-Cl)][d3Pal]SK(Nicotinoyl)[dK](Nicotinoyl)L[Orn(iPr)]P[dA]-NH2)	–	–	–	In Vitro Histamine Release ED50 (rat mast cells; listed as No. 44): > 86 µg/mL; AOA %/μg 1.0 (4-day cycling rats; listed as No. 44): ≥ 90%
CC(=O)N[C@H](Cc1ccc(Cl)cc1)C(=O)N[C@H](Cc1ccc(Cl)cc1)C(=O)N[C@H](Cc1cccnc1)C(=O)N[C@@H](CO)C(=O)N[C@@H](Cc1ccc(O)cc1)C(=O)N[C@H](CCCCNC(=O)c1cccnc1)C(=O)N[C@@H](CC(C)C)C(=O)N[C@@H](CCCCNC(C)C)C(=O)N1CCC[C@H]1C(=O)N[C@H](C)C(N)=O [IBR 25337] (Ac-[dPhe(4-Cl)][dPhe(4-Cl)][d3Pal]SY[dK](Nicotinoyl)L[Lys(iPr)]P[dA]-NH2)	> 86 µg/mL	–	–	AOA %/μg 1.0 (4-day cycling rats; listed as No. 23): ≥ 90%
CC(=O)N[C@H](Cc1ccc(Cl)c(Cl)c1)C(=O)N[C@H](Cc1ccc(Cl)cc1)C(=O)N[C@H](Cc1cccnc1)C(=O)N[C@@H](CO)C(=O)N[C@@H](Cc1ccc(O)cc1)C(=O)N[C@H](CCCCNC(=O)c1cccnc1)C(=O)N[C@@H](CC(C)C)C(=O)N[C@@H](CCCCNC(C)C)C(=O)N1CCC[C@H]1C(=O)N[C@H](C)C(N)=O [IBR 25338] (Ac-[dPhe(3,4-Cl2)][dPhe(4-Cl)][d3Pal]SY[dK](Nicotinoyl)L[Lys(iPr)]P[dA]-NH2)	> 86 µg/mL	–	–	AOA %/μg 1.0 (4-day cycling rats; listed as No. 24): ≥ 90%
CC(=O)N[C@H](Cc1ccc2ccccc2c1)C(=O)N[C@H](Cc1ccc(Cl)cc1)C(=O)N[C@H](Cc1cccnc1)C(=O)N[C@@H](CO)C(=O)N[C@@H](CCCCNC(=O)c1ccc(C)nc1)C(=O)N[C@H](CCCCNC(=O)c1ccc(C)nc1)C(=O)N[C@@H](CC(C)C)C(=O)N[C@@H](CCCCNC(C)C)C(=O)N1CCC[C@H]1C(=O)N[C@H](C)C(N)=O [IBR 25386] (Ac-[d2Nal][dPhe(4-Cl)][d3Pal]SK(Nicotinoyl(6-Me))[dK](Nicotinoyl(6-Me))L[Lys(iPr)]P[dA]-NH2)	> 86 µg/mL	–	–	AOA %/μg 1.0 (4-day cycling rats; listed as No. 55): ≥ 90%
CC(=O)N[C@H](Cc1ccc2ccccc2c1)C(=O)N[C@H](Cc1ccc(Cl)cc1)C(=O)N[C@H](Cc1cccnc1)C(=O)N[C@@H](CO)C(=O)N[C@@H](CCCCNC(=O)c1ccccn1)C(=O)N[C@H](CCCCNC(=O)c1ccccn1)C(=O)N[C@@H](CC(C)C)C(=O)N[C@@H](CCCNC(C)C)C(=O)N1CCC[C@H]1C(=O)N[C@H](C)C(N)=O [IBR 25933] (Ac-[d2Nal][dPhe(4-Cl)][d3Pal]SK(Picolinoyl)[dK](Picolinoyl)L[Orn(iPr)]P[dA]-NH2)	–	90%	100%	In Vitro Histamine Release ED50 (rat mast cells; listed as VI-19): 42+3.1 μg/ml and 42 ± 3.1 μg/ml
CC(=O)N[C@H](Cc1ccc2ccccc2c1)C(=O)N[C@H](Cc1ccc(Cl)cc1)C(=O)N[C@H](Cc1cccnc1)C(=O)N[C@@H](CO)C(=O)N[C@@H](CCCCNC(=O)c1ccccn1)C(=O)N[C@H](CCCCNC(=O)c1ccccn1)C(=O)N[C@H](C(=O)N[C@@H](CCCCNC(C)C)C(=O)N1CCC[C@H]1C(=O)N[C@H](C)C(N)=O)C(C)C [IBR 25934] (Ac-[d2Nal][dPhe(4-Cl)][d3Pal]SK(Picolinoyl)[dK](Picolinoyl)V[Lys(iPr)]P[dA]-NH2)	–	90%	100%	In Vitro Histamine Release ED50 (rat mast cells; listed as V-14): 213 ± 30 µg/mL; In Vitro Histamine Release ED50 (rat mast cells; listed as VI-14): 213 ± 30 µg/mL; AOA %/μg 0.25 (4-day cycling rats): 43%
CC[C@H](NC(=O)[C@@H](CCCCNC(=O)c1ccccn1)NC(=O)[C@H](CCCCNC(=O)c1ccccn1)NC(=O)[C@H](CO)NC(=O)[C@@H](Cc1cccnc1)NC(=O)[C@@H](Cc1ccc(Cl)cc1)NC(=O)[C@@H](Cc1ccc2ccccc2c1)NC(C)=O)C(=O)N[C@@H](CCCCNC(C)C)C(=O)N1CCC[C@H]1C(=O)N[C@H](C)C(N)=O [IBR 25990] (Ac-[d2Nal][dPhe(4-Cl)][d3Pal]SK(Picolinoyl)[dK](Picolinoyl)[Abu][Lys(iPr)]P[dA]-NH2)	–	100%	–	In Vitro Histamine Release ED50 (rat mast cells; listed as V-16): 273 ± 27 µg/mL; In Vitro Histamine Release ED50 (rat mast cells; listed as VI-16): 273 ± 27 µg/mL; AOA %/μg 0.25 (4-day cycling rats): 36%
CC(=O)N[C@H](Cc1ccc2ccccc2c1)C(=O)N[C@H](Cc1ccc(Cl)cc1)C(=O)N[C@H](Cc1cccnc1)C(=O)N[C@@H](CO)C(=O)N[C@@H](CCCCNC(=O)c1ccccn1)C(=O)N[C@H](C[C@H]1CC[C@H](NC(=O)c2ccccn2)CC1)C(=O)N[C@@H](CC(C)C)C(=O)N[C@@H](CCCCNC(C)C)C(=O)N1CCC[C@H]1C(=O)N[C@H](C)C(N)=O [IV-3] (Ac-[d2Nal][dPhe(4-Cl)][d3Pal]SK(Picolinoyl)[X6]L[Lys(iPr)]P[dA]-NH2)	64 ± 5.4 µg/mL	50%	–	–
CC(=O)N[C@H](Cc1ccc2ccccc2c1)C(=O)N[C@H](Cc1ccc(Cl)cc1)C(=O)N[C@H](Cc1cccnc1)C(=O)N[C@@H](CO)C(=O)N[C@@H](CCCCNC(=O)c1ccccn1)C(=O)N[C@H](C[C@H]1CC[C@H](NC(=O)c2cnccn2)CC1)C(=O)N[C@@H](CC(C)C)C(=O)N[C@@H](CCCCNC(C)C)C(=O)N1CCC[C@H]1C(=O)N[C@H](C)C(N)=O [IV-5] (Ac-[d2Nal][dPhe(4-Cl)][d3Pal]SK(Picolinoyl)[X3]L[Lys(iPr)]P[dA]-NH2)	39 ± 4.4 µg/mL	44%	–	–
CC(=O)N[C@H](Cc1ccc2ccccc2c1)C(=O)N[C@H](Cc1ccc(Cl)cc1)C(=O)N[C@H](Cc1cccnc1)C(=O)N[C@@H](CO)C(=O)N[C@@H](Cc1ccc(O)cc1)C(=O)N[C@H](CCCCNC(=O)c1cccnc1)C(=O)N[C@@H](CC(C)C)C(=O)N[C@@H](CCCNC(=N)N)C(=O)N1CCC[C@H]1C(=O)N[C@H](C)C(N)=O [compound 22396] (Ac-[d2Nal][dPhe(4-Cl)][d3Pal]SY[dK](Nicotinoyl)LRP[dA]-NH2)	39.2 ± 7 µg/mL	60%	100%	–
CC(=O)N[C@H](Cc1ccc2ccccc2c1)C(=O)N[C@H](Cc1ccc(Cl)cc1)C(=O)N[C@H](Cc1cccnc1)C(=O)N[C@@H](CO)C(=O)N[C@@H](Cc1ccc(O)cc1)C(=O)N[C@H](CCCCNC(=O)c1cccnc1)C(=O)N[C@@H](CC(C)C)C(=O)N[C@@H](CCCCNC(C)C)C(=O)N1CCC[C@H]1C(=O)N[C@H](C)C(N)=O [compound 24315] (Ac-[d2Nal][dPhe(4-Cl)][d3Pal]SY[dK](Nicotinoyl)L[Lys(iPr)]P[dA]-NH2)	133 ± 22 µg/mL	–	89%	AOA %/μg 2.0 (4-day cycling rats): 100%
CC(=O)N[C@H](Cc1ccc2ccccc2c1)C(=O)N[C@H](Cc1ccc(Cl)cc1)C(=O)N[C@H](Cc1cccnc1)C(=O)N[C@@H](CO)C(=O)N[C@@H](Cc1ccc(O)cc1)C(=O)N[C@H](CCCCNC(=O)c1cccnc1)C(=O)N[C@@H](CC(C)C)C(=O)N[C@@H](CCCCN(C)C)C(=O)N1CCC[C@H]1C(=O)N[C@H](C)C(N)=O [compound 24443] (Ac-[d2Nal][dPhe(4-Cl)][d3Pal]SY[dK](Nicotinoyl)L[Lys(Me2)]P[dA]-NH2)	18.4 µg/mL	–	90%	AOA %/μg 2.0 (4-day cycling rats): 100%
CC(=O)N[C@H](Cc1ccc2ccccc2c1)C(=O)N[C@H](Cc1ccc(Cl)cc1)C(=O)N[C@H](Cc1ccc(O)cc1)C(=O)N[C@@H](CO)C(=O)N[C@@H](CCCNC(=N)N)C(=O)N[C@H](CCCCNC(=O)c1cccnc1)C(=O)N[C@@H](CC(C)C)C(=O)N[C@@H](CCCNC(=N)N)C(=O)N1CCC[C@H]1C(=O)N[C@H](C)C(N)=O [compound 24446] (Ac-[d2Nal][dPhe(4-Cl)][dY]SR[dK](Nicotinoyl)LRP[dA]-NH2)	1.73 µg/mL	33%	–	–
